# This is one part of the list.
# B1: Banana lectin (Musa acuminata) (protein)
# chain: MNGAIKVGAWGGNGGSAFDMGPAYRIISVKIFSGDVVDGVDVTFTYYGKTETRHYGGSGGTPHEIVLQEGEYLVGMAGEVANYHGAVVLGKLGFSTNKKAYGPFGNTGGTPFSLPIAAGKISGFFGRGGKFLDAIGVYLEPLEHHHHHH
# Columns and labels:
# Test in all cases: glycan array binding signal (z-score within array); higher = stronger binding
# Settings in all cases: glycan notation: IUPAC condensed, linker removed
# [1] = biological target: Neu5Ac(a2-6)Gal(b1-4)GlcNAc(b1-3)Gal(b1-4)GlcNAc
# How it was run: (§1)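 Glycan array data came from 3228 arrays in the Consortium for Functional Glycomics database, and only arrays with an available protein sequence were kept. Glycan names were put into IUPAC-condensed notation, and columns mapping to the same glycan were averaged. The binding signal is a within-array Z-score, averaged across arrays of one protein sequence run at different concentrations or buffers and across linkers. A negative Z-score can be read as non-binding.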
# [2] = biological target: Neu5Ac(a2-6)Gal(b1-4)GlcNAc(b1-3)Gal(b1-4)GlcNAc(b1-2)Man(a1-3)[Neu5Ac(a2-6)Gal(b1-4)GlcNAc(b1-3)Gal(b1-4)GlcNAc(b1-2)Man(a1-6)]GalNAc
# How it was run: as §1
# [3] = biological target: Neu5Ac(a2-6)Gal(b1-4)GlcNAc(b1-3)Gal(b1-4)GlcNAc(b1-3)Gal(b1-4)GlcNAc
# How it was run: as §1
# [4] = biological target: Neu5Ac(a2-6)Gal(b1-4)GlcNAc(b1-3)Gal(b1-4)GlcNAc(b1-3)Gal(b1-4)GlcNAc(b1-2)Man(a1-3)[Neu5Ac(a2-6)Gal(b1-4)GlcNAc(b1-3)Gal(b1-4)GlcNAc(b1-3)Gal(b1-4)GlcNAc(b1-2)Man(a1-6)]GalNAc
# How it was run: as §1
# [5] = biological target: Neu5Ac(a2-6)Gal(b1-4)GlcNAc(b1-3)Gal(b1-4)GlcNAc(b1-3)GalNAc
# How it was run: as §1
# [6] = biological target: Neu5Ac(a2-6)Gal(b1-4)GlcNAc(b1-3)Gal(b1-4)GlcNAc(b1-3)[Neu5Ac(a2-6)Gal(b1-4)GlcNAc(b1-3)Gal(b1-4)GlcNAc(b1-6)]GalNAc
# How it was run: as §1
# [7] = biological target: Neu5Ac(a2-6)Gal(b1-4)GlcNAc(b1-3)Gal(b1-4)GlcNAc(b1-6)[Gal(b1-3)]GalNAc
# How it was run: as §1
# [8] = biological target: Neu5Ac(a2-6)Gal(b1-4)GlcNAc(b1-3)Gal(b1-4)[Fuc(a1-3)]GlcNAc(b1-3)Gal(b1-4)[Fuc(a1-3)]GlcNAc
# How it was run: as §1
# [9] = biological target: Neu5Ac(a2-6)Gal(b1-4)GlcNAc(b1-3)GalNAc
# How it was run: as §1
# [10] = biological target: Neu5Ac(a2-6)Gal(b1-4)GlcNAc(b1-3)[Neu5Ac(a2-6)Gal(b1-4)GlcNAc(b1-6)]GalNAc
# How it was run: as §1
# [11] = biological target: Neu5Ac(a2-6)Gal(b1-4)GlcNAc(b1-6)GalNAc
# How it was run: as §1
# [12] = biological target: Neu5Ac(a2-6)Gal(b1-4)GlcNAc(b1-6)[Gal(b1-3)GlcNAc(b1-3)]Gal(b1-4)Glc
# How it was run: as §1
# [13] = biological target: Neu5Ac(a2-6)Gal(b1-4)GlcNAc(b1-6)[Gal(b1-3)]GalNAc
# How it was run: as §1
# [14] = biological target: Neu5Ac(a2-6)Gal(b1-4)GlcNAc6S
# How it was run: as §1
# Neu5Ac(a2-6)GalNAc = biological target: Neu5Ac(a2-6)GalNAc
# How it was run: as §1
# [15] = biological target: Neu5Ac(a2-6)GalNAc(b1-4)GlcNAc
# How it was run: as §1
# [16] = biological target: Neu5Ac(a2-6)GalNAc(b1-4)GlcNAc6S
# How it was run: as §1
# [17] = biological target: Neu5Ac(a2-6)GlcNAc(b1-4)GlcNAc
# How it was run: as §1
# [18] = biological target: Neu5Ac(a2-6)GlcNAc(b1-4)GlcNAc(b1-4)GlcNAc
# How it was run: as §1
# Neu5Ac(a2-8)Neu5Ac = biological target: Neu5Ac(a2-8)Neu5Ac
# How it was run: as §1
# [19] = biological target: Neu5Ac(a2-8)Neu5Ac(a2-3)Gal(b1-3)GalNAc(b1-4)[Neu5Ac(a2-3)]Gal(b1-4)Glc
# How it was run: as §1
# [20] = biological target: Neu5Ac(a2-8)Neu5Ac(a2-3)Gal(b1-3)GalNAc(b1-4)[Neu5Ac(a2-8)Neu5Ac(a2-3)]Gal(b1-4)Glc
# How it was run: as §1
# [21] = biological target: Neu5Ac(a2-8)Neu5Ac(a2-3)Gal(b1-4)Glc
# How it was run: as §1
# [22] = biological target: Neu5Ac(a2-8)Neu5Ac(a2-3)Gal(b1-4)GlcNAc
# How it was run: as §1
# [23] = biological target: Neu5Ac(a2-8)Neu5Ac(a2-3)[Gal(b1-3)GalNAc(b1-4)]Gal(b1-4)Glc
# How it was run: as §1
# [24] = biological target: Neu5Ac(a2-8)Neu5Ac(a2-3)[GalNAc(b1-4)]Gal(b1-4)Glc
# How it was run: as §1
# [25] = biological target: Neu5Ac(a2-8)Neu5Ac(a2-8)Neu5Ac
# How it was run: as §1
# [26] = biological target: Neu5Ac(a2-8)Neu5Ac(a2-8)Neu5Ac(a2-3)Gal(b1-4)Glc
# How it was run: as §1
# [27] = biological target: Neu5Ac(a2-8)Neu5Ac(a2-8)Neu5Ac(a2-3)[Gal(b1-3)GalNAc(b1-4)]Gal(b1-4)Glc
# How it was run: as §1
# [28] = biological target: Neu5Ac(a2-8)Neu5Ac(a2-8)Neu5Ac(a2-3)[GalNAc(b1-4)]Gal(b1-4)Glc
# How it was run: as §1
# [29] = biological target: Neu5Ac(a2-8)Neu5Ac(a2-8)Neu5Ac(a2-8)Neu5Ac(a2-3)[GalNAc(b1-4)]Gal(b1-4)Glc
# How it was run: as §1
# [30] = biological target: Neu5Ac(a2-8)Neu5Gc(a2-3)Gal(b1-4)GlcNAc
# How it was run: as §1
# [31] = biological target: Neu5Ac(b2-6)Gal(b1-4)GlcNAc
# How it was run: as §1
# Neu5Ac(b2-6)GalNAc = biological target: Neu5Ac(b2-6)GalNAc
# How it was run: as §1
# [32] = biological target: Neu5Ac9Ac(a2-3)Gal(b1-3)GlcNAc
# How it was run: as §1
# [33] = biological target: Neu5Ac9Ac(a2-3)Gal(b1-4)GlcNAc
# How it was run: as §1
# [34] = biological target: Neu5Ac9Ac(a2-6)Gal(b1-4)GlcNAc
# How it was run: as §1
# [35] = biological target: Neu5Gc(a2-3)Gal(b1-3)GlcNAc
# How it was run: as §1
# [36] = biological target: Neu5Gc(a2-3)Gal(b1-3)[Fuc(a1-4)]GlcNAc
# How it was run: as §1
# Neu5Gc(a2-3)Gal(b1-4)Glc = biological target: Neu5Gc(a2-3)Gal(b1-4)Glc
# How it was run: as §1
# [37] = biological target: Neu5Gc(a2-3)Gal(b1-4)GlcNAc
# How it was run: as §1
# [38] = biological target: Neu5Gc(a2-3)Gal(b1-4)GlcNAc(b1-3)Gal(b1-4)GlcNAc(b1-2)Man(a1-3)[Neu5Gc(a2-3)Gal(b1-4)GlcNAc(b1-3)Gal(b1-4)GlcNAc(b1-2)Man(a1-6)]Man(b1-4)GlcNAc(b1-4)GlcNAc
# How it was run: as §1
# [39] = biological target: Neu5Gc(a2-3)Gal(b1-4)[Fuc(a1-3)]GlcNAc
# How it was run: as §1
# [40] = biological target: Neu5Gc(a2-6)Gal(b1-4)GlcNAc
# How it was run: as §1
# Neu5Gc(a2-6)GalNAc = biological target: Neu5Gc(a2-6)GalNAc
# How it was run: as §1
binder,measurement,setting,value
B1,glycan array binding signal (z-score),[1],-0.226
same,glycan array binding signal (z-score),[2],0.219
same,glycan array binding signal (z-score),[3],-0.222
same,glycan array binding signal (z-score),[4],-0.169
same,glycan array binding signal (z-score),[5],-0.223
same,glycan array binding signal (z-score),[6],-0.161
same,glycan array binding signal (z-score),[7],-0.191
same,glycan array binding signal (z-score),[8],-0.219
same,glycan array binding signal (z-score),[9],-0.214
same,glycan array binding signal (z-score),[10],-0.175
same,glycan array binding signal (z-score),[11],-0.243
same,glycan array binding signal (z-score),[12],-0.212
same,glycan array binding signal (z-score),[13],-0.191
same,glycan array binding signal (z-score),[14],-0.22
same,glycan array binding signal (z-score),Neu5Ac(a2-6)GalNAc,-0.204
same,glycan array binding signal (z-score),[15],-0.221
same,glycan array binding signal (z-score),[16],-0.227
same,glycan array binding signal (z-score),[17],-0.182
same,glycan array binding signal (z-score),[18],-0.173
same,glycan array binding signal (z-score),Neu5Ac(a2-8)Neu5Ac,-0.21
same,glycan array binding signal (z-score),[19],-0.192
same,glycan array binding signal (z-score),[20],-0.179
same,glycan array binding signal (z-score),[21],-0.248
same,glycan array binding signal (z-score),[22],-0.215
same,glycan array binding signal (z-score),[23],-0.221
same,glycan array binding signal (z-score),[24],-0.182
same,glycan array binding signal (z-score),[25],-0.182
same,glycan array binding signal (z-score),[26],-0.139
same,glycan array binding signal (z-score),[27],-0.215
same,glycan array binding signal (z-score),[28],-0.199
same,glycan array binding signal (z-score),[29],-0.142
same,glycan array binding signal (z-score),[30],-0.242
same,glycan array binding signal (z-score),[31],-0.214
same,glycan array binding signal (z-score),Neu5Ac(b2-6)GalNAc,-0.209
same,glycan array binding signal (z-score),[32],-0.228
same,glycan array binding signal (z-score),[33],-0.23
same,glycan array binding signal (z-score),[34],-0.197
same,glycan array binding signal (z-score),[35],-0.233
same,glycan array binding signal (z-score),[36],-0.219
same,glycan array binding signal (z-score),Neu5Gc(a2-3)Gal(b1-4)Glc,-0.209
same,glycan array binding signal (z-score),[37],-0.215
same,glycan array binding signal (z-score),[38],-0.308
same,glycan array binding signal (z-score),[39],-0.205
same,glycan array binding signal (z-score),[40],-0.212
same,glycan array binding signal (z-score),Neu5Gc(a2-6)GalNAc,-0.232

# — the supplement of paper PMC8728848
